From PubChem BioAssay (NCATS)
Inconclusive results, whose numbers are uncertain, are shown with a selection of clear calls. Potencies of inconclusive entries are doubtful fits and often do not repeat. Calls of active or inactive are those of the source. Calls follow the shape of the dose curve; as a rule, active = well fitted curve in the direction sought with a large enough effect; inconclusive = small, poorly fitted or top-dose-only effect, or another doubt; inactive = no such curve, though single readings can be large; an effect the other way counts as inactive or inconclusive.

Tests used:
[1] = COV-362 Cancer Cell Toxicity qHTS against the NCATS CANVASS Library (AID 1347352)
Method in brief: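 Cells were seeded at 1000 per well and allowed to settle 4 hours at 37 degrees C before pin transfer of compounds as an 11-point series. Viability was read by CellTiter-Glo luminescence after 72 hours' exposure.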

[2] = MCF7 Cancer Cell Toxicity qHTS against the NCATS CANVASS Library (AID 1347369); details: activity change, negative = cytotoxicity: at 46 µM (top of the series)
Method in brief: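 Cytotoxicity was measured as CellTiterGlo luminescence (ATP) after 72 h at 37 °C. The cells were MCF7 at 500 per well, with an 11-point compound concentration series.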

[3] = qHTS for ATAD5 Antagonist screened against the NCATS CANVASS Library (AID 1347370); also: nearly all actives have a fitted effect of over 65% in size
Method in brief: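 HEK293T cells with a stably integrated ATAD5-controlled luciferase reporter were exposed to compounds (11-pt) alongside 10 uM 5-fluorouridine as ATAD5 stabilizer for 16hr at 37C. Viability was read by CellTiter-Fluor fluorescence, then ATAD5 by luminescence.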

[4] = target: Nuclear receptor subfamily 1 group I member 3 (Homo sapiens) (UniProt Q14994); experiment: qHTS for Constitutive Androstane Receptor (CAR) Antagonist screened against the NCATS CANVASS Library (AID 1347372)
Method in brief: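 HepG2 cells stably carrying hCAR and a CYP2B6-2.2kb luciferase reporter were exposed to compounds plus 50 nM CITCO for 24hr at 37C. CAR activity was read by ONE-Glo luminescence, with viability measured first by CellTiter-Fluor.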

[5] = qHTS for Hypoxia signaling pathway (HIF-1) agonists against the NCATS CANVASS Library (AID 1347375); as to activation: 0% is about no effect
Method in brief: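 HRE-bla ME-180 cells (beta-lactamase reporter under hypoxia responsive element) in 0.5% dialyzed FBS medium, 5 h at 37C, then compound 17 h, 11-point qHTS series. CCF4-AM FRET substrate 2 h RT; 460/530 nm emission read.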

[6] = DH5-alpha competent E. coli microbial cell viability qHTS against the NCATS CANVASS Library (AID 1347377); details: viability signal change, negative = cytotoxic: at 46.1 µM (top of the series)
Method in brief: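 DH5-alpha E. coli suspension (0.9 OD culture diluted to 0.2 OD) exposed to compounds in an 11-point series, overnight at 37C, 5% CO2. Viability read as ATP by BacTiter-Glo luminescence after 20 min at room temperature.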

[7] = qHTS for Inflammasome Signaling Inhibitors: IL-1-beta AlphaLISA screen against the NCATS CANVASS Library (AID 1347379);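 also: human THP-1 cells primed with LPS then triggered with ATP; secreted IL-1B measured as AlphaLISA emission at 615 nm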
Method in brief: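 Human THP-1 cells were pretreated 1 hr at 37 °C with compounds (up to 57.5 uM final), then stimulated with LPS (250 ng/mL final) and ATP (1.25 mM final). Secreted IL-1B was read by AlphaLISA after 16 hr.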

[8] = qHTS for activators of dead-cell proteases activity screened against the NCATS CANVASS Library (AID 1347392);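 also: luminescence from protease leaking out of membrane-damaged cells cleaving impermeant substrate; rising signal means more cytotoxicity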
Method in brief: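 HepG2 cells (2000/well) attached 18 h at 37C, then exposed 5 h to compounds (11-point qHTS). Dead-cell protease activity read as luminescence from cell-impermeant AAF-aminoluciferin substrate after 15 min at room temperature.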

[9] = Vero-766 cells viability qHTS against the NCATS CANVASS Library: Counterscreen for Zika virus inhibition assay (AID 1347394); details: Vero 766 viability, CellTiter-Glo luminescence, 72 h; activity change, negative = cytotoxic: at 46.1 µM (top of the series); also: nearly all actives have a fitted effect of over 60% in size; as to activity change, negative = cytotoxic: % is scaled to controls: 0 for no effect and ±100 for the full control effect
Method in brief: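 CellTiter Glo luminescence measured cytotoxicity after 72 h at 37C in uninfected Vero 766 cells, plated at 1000 cells/well. Compounds were applied in an 11-point series. Wells without cells defined 100% inhibition.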

[10] = SDT Cancer Cell Toxicity qHTS against the NCATS CANVASS Library (AID 1347365); also: nearly all actives have a fitted effect of over 60% in size;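 as to activity change, negative = cytotoxicity: SDT canine glioma cells 500 per well in 1536 well plates; % is scaled to controls: 0 for no effect and ±100 for the full control effect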
Method in brief: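 SDT canine glioma cells (500 cells/well) were exposed to compounds in an 11-point series for 72 hr at 37C, 5% CO2; viability was read as ATP content by CellTiterGlo luminescence.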

[11] = KB-3-1 Cancer Cell Toxicity qHTS against the NCATS CANVASS Library (AID 1347366); also: nearly all actives have a fitted effect of over 75% in size
Method in brief: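 CellTiter-Glo luminescence measured viability after 72 h at 37C. KB-3-1 cells were seeded at 500 per well in DMEM/10% FBS.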

[12] = J3T Cancer Cell Toxicity qHTS against the NCATS CANVASS Library (AID 1347371);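 as to activity change, negative = cytotoxicity: J3T is a canine glioma cancer cell line seeded at 500 cells per well; % is scaled to controls: 0 for no effect and ±100 for the full control effect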
Method in brief: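 J3T dog glioma cells (500 cells/well) were exposed to compounds in an 11-point series for 72 hr at 37C, 5% CO2. Cytotoxicity was read as ATP content by CellTiterGlo luminescence.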

[13] = qHTS assay for small molecule disruptors of mitochondrial membrane potential screened against the NCATS CANVASS Library (AID 1347389); also: nearly all actives have a fitted effect of over 60% in size
Method in brief: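 HepG2 cells (2,000/well) were plated overnight at 37C, exposed to compound for 1 hr at 37C/5% CO2, then loaded with Mito-MPS dye for 30 min. Depolarization was read as a drop in red (590 nm) to green (535 nm) fluorescence ratio.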

[14] = Redox Reaction Profiling qHTS: Assay Interference Panel against the NCATS CANVASS Library (AID 1347401)
Method in brief: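 Resazurin (5 uM) conversion to resorufin measured with 200 uM DTT in 50 mM HEPES pH 7.3, 50 mM NaCl. Compounds tested in 11-point qHTS series. Fluorescence (ex 525/em 598 nm) read before and after 15 min dark incubation.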

[15] = G06 Cancer Cell Toxicity qHTS against the NCATS CANVASS Library (AID 1347368); also: nearly all actives have a fitted effect of over 60% in size
Method in brief: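 G06 dog glioma cells seeded at 500 cells/well were exposed to compounds (11-point qHTS series) for 72 hr at 37C, 5% CO2; viability read as ATP content by CellTiterGlo luminescence.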

[16] = target: Nuclear receptor subfamily 1 group I member 3 (Homo sapiens) (UniProt Q14994); experiment: qHTS for Constitutive Androstane Receptor (CAR) Agonist screened against the NCATS CANVASS Library (AID 1347373);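 also: every well also contained 1.5 µM PK11195 alongside the test compound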
Method in brief: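 HepG2 cells stably expressing hCAR and a CYP2B6-2.2kb luciferase reporter were treated for 24hr at 37C with compounds (11-point qHTS) in the presence of 1.5uM PK11195. Reporter activation was read by ONE-Glo luminescence.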

[17] = HEK293 18hr Apoptosis Induction qHTS against the NCATS CANVASS Library (AID 1347357)
Method in brief: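 Caspase-Glo 3/7 luminescence (15 min, room temperature) measured apoptosis after an 18-hour, 37 degrees C exposure of HEK293 cells (500 cells/well) to compounds in 11 points.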
Potency is read from the fitted curve at half-maximal effect; tags tell the direction and shape of the fitted curve.

Chain of UniProt Q14994 (Q14994 whole entry, looked up): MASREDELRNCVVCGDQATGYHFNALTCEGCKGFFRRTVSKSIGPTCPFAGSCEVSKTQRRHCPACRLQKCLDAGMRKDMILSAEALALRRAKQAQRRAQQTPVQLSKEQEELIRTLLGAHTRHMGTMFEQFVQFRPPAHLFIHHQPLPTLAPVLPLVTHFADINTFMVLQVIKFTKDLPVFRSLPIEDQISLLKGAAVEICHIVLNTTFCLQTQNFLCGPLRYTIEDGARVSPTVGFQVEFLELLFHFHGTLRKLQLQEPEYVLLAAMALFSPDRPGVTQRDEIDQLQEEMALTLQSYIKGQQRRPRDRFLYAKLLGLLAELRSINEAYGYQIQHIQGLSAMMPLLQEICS

In the case of `CCC[C@@H](C)/C=C(\C)[C@H](O)[C@H](C)/C=C/CC[C@@H](O)[C@H](C)[C@H](O)[C@H](C)[C@H](O)[C@H](C)[C@H]1O[C@H]([C@H](C)C(=O)O)CC[C@@H]1C`, the Potency [1] is reported as active: 5.94 µM, the Potency [2] is reported as active: 16.5 µM and the Potency [3] is reported as inconclusive: 29.5 µM [inhibitor, single point]. The Potency [4] was inconclusive: 16.6 µM [inhibitor, partial curve], the Potency [5] was inconclusive: 13.3 µM [activator, partial curve] and the Potency [6] was inconclusive: 4.67 µM [rising, full curve]. The Potency [7] was inconclusive: 43.2 µM [inhibitor, single point], the Potency [8] was inconclusive: 33.1 µM [activator, single point] and the Potency [9] was active: 9.33 µM.

For `CCC(=O)N[C@@H](C[C@H](C)C(Cl)(Cl)Cl)C(=O)N1C(=O)C=C(OC)[C@@H]1CC(C)C`, the Potency [10] was inconclusive: 5.26 µM [cytotoxic, partial curve], the Potency [2] was inconclusive: 4.16 µM [cytotoxic, partial curve, poor fit] and the Potency [4] was inconclusive: 18.6 µM [inhibitor, partial curve, poor fit].

In the case of `C=C1C(=O)O[C@H]2[C@H]1CCC(C)=C1CC[C@@](C)(O)[C@@H]12`, the Potency [11] is reported as inconclusive: 33.2 µM [cytotoxic, single point], the Potency [2] is reported as inconclusive: 26.2 µM [cytotoxic, single point] and the Potency [3] is reported as inconclusive: 33.1 µM [inhibitor, single point]. For the same compound, the Potency [12] was inconclusive: 37.2 µM [cytotoxic, single point], the Potency [5] was inconclusive: 9.41 µM [activator, full curve] and the Potency [13] was inconclusive: 4.67 µM [inhibitor, full curve]. For the same compound, the Potency [14] was “inactive”.

With `Oc1ccc(C2Oc3cc(O)c4c(c3[C@@H]2c2cc(O)cc(O)c2)[C@H]2C(c3ccc(O)cc3)c3c(O)cc5c(c3[C@H]2C4c2ccc(O)cc2)[C@H](c2cc(O)cc(O)c2)C(c2ccc(O)cc2)O5)cc1` (stereo partly drawn) the Potency [15] was inconclusive: 8.33 µM [cytotoxic, full curve], the Potency [8] was “inactive” and the Potency [9] was inconclusive: 8.31 µM [cytotoxic, partial curve, poor fit]. The Potency [14] was inconclusive: 27.1 µM [activator, partial curve, poor fit].

For `CC(=O)Oc1cc2c(c(OC(C)=O)c1C1CCc3cc(Cl)c(Cl)n31)C(=O)n1c-2cc(Cl)c1Cl` (stereo not drawn), the Potency [1] was active: 9.41 µM, the Potency [2] was inconclusive: 33 µM [cytotoxic, single point] and the Potency [3] was inconclusive: 8.31 µM [inhibitor, partial curve]. For the same compound, the Potency [16] was inconclusive: 5.88 µM [activator, partial curve], the Potency [6] was inconclusive: 18.6 µM [rising, partial curve] and the Potency [7] was inconclusive: 43.2 µM [inhibitor, single point]. For the same compound, the Potency [14] was inconclusive: 21.5 µM [activator, partial curve, poor fit].

For `C/C=C/C(=O)C1(O)CC2CC(C(=O)O)CC(C)C2C1C1=C2C(=O)NC(=O)C2=C(CCCCC)C(C)O1` (stereo not drawn), the Potency [1] was inconclusive: 18.8 µM [cytotoxic, single point], the Potency [11] was inconclusive: 33.2 µM [cytotoxic, single point] and the Potency [3] was active: 16.6 µM. For the same compound, the Potency [6] was inconclusive: 3.31 µM [cytotoxic, full curve, poor fit], the Potency [7] was active: 19.3 µM and the Potency [13] was inconclusive: 26.3 µM [inhibitor, single point]. The Potency [8] was inconclusive: 33.1 µM [activator, single point], the Potency [9] was “inactive” and the Potency [14] was inconclusive: 38.3 µM [activator, partial curve, poor fit].

For `COc1cc(/C=C/C(=O)OC[C@@H](Cc2ccc(O)c(OC)c2)[C@@H](COC(=O)/C=C/c2ccc(O)c(OC)c2)Cc2ccc(O)c(OC)c2)ccc1O`, the Potency [17] was inconclusive: 33.2 µM [activator, single point], the Potency [2] was inconclusive: 33 µM [cytotoxic, single point] and the Potency [12] was “inactive”. The Potency [5] was inconclusive: 21.1 µM [activator, partial curve, poor fit], the Potency [13] was active: 7.41 µM and the Potency [8] was inconclusive: 33.1 µM [activator, single point]. For the same compound, the Potency [14] was “inactive”.

For `C/C1=C/[C@@H](C)[C@H](O)C/C=C/CC/C=C/C(=O)O[C@@H]1[C@H](C)C(=O)/C=C/CC1CC(=O)NC(=O)C1`, the Potency [4] was inconclusive: 13.2 µM [inhibitor, single point], the Potency [9] was “inactive” and the Potency [14] was active: 24.1 µM.

For `COc1ccc([C@@H]2CC(=O)c3c(cc(O)c(C/C=C(\C)CCC=C(C)C)c3O)O2)cc1`, the activity change, negative = cytotoxicity [10] was inactive: 0.771% [at 9.19 µM], the outcome [15] was “inactive [at 9.19 µM]” and the Potency [16] was active: 3.05 µM. For the same compound, the activation [5] was inactive: 1.16% [at 7.64 µM].
